# The full ranking holds about 33,000 sequences; the median of “E-score (-0.5 to 0.5)” is about -0.053, and the highest 2% start at about 0.37. The list shows a part of the results.
# Molecular target: Hap1 (UniProt P0CE41)
# Experiment: PBM E-score (8-mer binding enrichment) (E-score (-0.5 to 0.5)); higher = stronger / more preferred TF binding; most listed sequences are background and not binding sites
# Details: protein concentration: 200 nM; construct: GST-DNA-binding domain
# In short: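 Universal all-10-mer Agilent arrays, double-stranded by primer extension on fresh or once-stripped slides, were probed with about 100-200 nM GST-tagged yeast transcription factors made by PURExpress. Fluorescent anti-GST detected bound protein, and masliner normalised the scans. E-scores from the Universal PBM Analysis Suite were given to each ungapped eight-base word pooled with its reverse complement.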
# Sequence of UniProt P0CE41 (P0CE41 whole entry): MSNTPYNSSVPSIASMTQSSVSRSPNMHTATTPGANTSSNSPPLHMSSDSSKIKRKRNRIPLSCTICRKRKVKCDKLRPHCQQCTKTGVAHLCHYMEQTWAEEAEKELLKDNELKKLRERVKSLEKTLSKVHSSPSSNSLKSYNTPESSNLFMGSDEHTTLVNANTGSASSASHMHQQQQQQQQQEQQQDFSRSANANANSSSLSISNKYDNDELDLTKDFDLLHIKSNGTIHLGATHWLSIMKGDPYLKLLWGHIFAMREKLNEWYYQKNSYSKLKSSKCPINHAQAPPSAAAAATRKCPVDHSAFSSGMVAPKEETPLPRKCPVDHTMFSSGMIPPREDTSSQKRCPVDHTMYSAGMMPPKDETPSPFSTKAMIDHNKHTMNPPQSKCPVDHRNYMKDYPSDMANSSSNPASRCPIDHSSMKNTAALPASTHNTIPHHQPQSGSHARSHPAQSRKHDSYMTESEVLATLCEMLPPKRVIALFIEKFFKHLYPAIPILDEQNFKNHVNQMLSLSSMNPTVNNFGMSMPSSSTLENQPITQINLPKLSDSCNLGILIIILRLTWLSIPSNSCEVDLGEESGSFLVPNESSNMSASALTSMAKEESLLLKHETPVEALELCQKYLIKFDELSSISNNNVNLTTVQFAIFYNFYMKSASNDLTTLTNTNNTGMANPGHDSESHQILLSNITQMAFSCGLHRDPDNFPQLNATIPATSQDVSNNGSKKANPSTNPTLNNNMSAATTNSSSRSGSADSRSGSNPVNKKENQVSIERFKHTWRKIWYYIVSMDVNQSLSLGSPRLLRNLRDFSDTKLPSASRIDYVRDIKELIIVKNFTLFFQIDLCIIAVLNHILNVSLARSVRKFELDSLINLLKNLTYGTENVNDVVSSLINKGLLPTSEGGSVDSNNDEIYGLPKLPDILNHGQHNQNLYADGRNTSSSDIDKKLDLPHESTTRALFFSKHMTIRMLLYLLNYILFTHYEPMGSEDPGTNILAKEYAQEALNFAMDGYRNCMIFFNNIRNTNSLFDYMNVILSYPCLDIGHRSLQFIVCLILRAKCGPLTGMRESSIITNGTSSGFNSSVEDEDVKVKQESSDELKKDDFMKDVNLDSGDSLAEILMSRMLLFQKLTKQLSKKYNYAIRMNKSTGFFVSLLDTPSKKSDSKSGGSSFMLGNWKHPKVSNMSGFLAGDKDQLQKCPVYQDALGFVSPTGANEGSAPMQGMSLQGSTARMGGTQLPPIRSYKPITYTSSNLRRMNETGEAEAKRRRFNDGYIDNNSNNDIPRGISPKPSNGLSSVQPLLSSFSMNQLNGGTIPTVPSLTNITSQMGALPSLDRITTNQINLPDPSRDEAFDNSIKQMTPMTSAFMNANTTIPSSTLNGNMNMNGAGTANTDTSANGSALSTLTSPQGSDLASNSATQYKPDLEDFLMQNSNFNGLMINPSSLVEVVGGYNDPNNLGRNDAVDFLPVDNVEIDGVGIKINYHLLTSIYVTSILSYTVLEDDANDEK
row,Sequence,PBM E-score
1,GATGAAGA,0.044
2,GAGCCCGC,0.103
3,ATCGCATC,0.214
4,ATAGACCC,0.23
5,CAGTCGAC,-0.126
6,AGTCTGTA,-0.287
7,GCATACCA,-0.045
8,ACCCCCGA,0.371
9,ACCCATGA,0.0386
10,ACGGATGC,0.2
11,TGGATCAA,-0.284
12,CCAAATCA,-0.284
13,GGACGTAA,0.275
14,GGGAACTA,0.202
15,CACGGAGC,0.266
16,CGGGAAAG,0.288
17,ACGGTCAT,0.251
18,CTCTGACC,-0.174
19,CTTCTGTC,-0.0529
20,ACATGTAC,-0.0339
21,CGCATTTC,0.0766
22,GGCTAACC,-0.0472
23,GCTCGTCA,-0.202
24,AAACTAAA,-0.185
25,ACAGCTAC,-0.11

row,Sequence,PBM E-score
1,CTAATGTA,-0.0553
2,GAAGAAAC,-0.0589
3,ATAACGCA,0.0362
4,GTAGGTAA,-0.122
5,TAACCACA,-0.145
6,CATCGCTA,-0.125
7,TGTAAACA,-0.156
8,CCGGAAAG,0.307
9,ATCGATCG,-0.0935
10,ATGATGGA,-0.122
11,AATAGCTC,-0.106
12,CGACACGC,0.0146
13,GGTCATAC,0.172
14,GCCCCTCA,-0.0279
15,AACGTGAA,-0.18
16,ATCAGCGA,0.105
17,CTTATGGA,-0.0946
18,CTTACTGC,-0.00792
19,GCGACGTA,-0.0421
20,ACCGCGAA,0.288
21,CATACCCC,0.244
22,GTTATCAA,-0.221
23,CCAATAAC,0.00033
24,CAAGCTTC,-0.227
25,ACGGAACA,0.241

row,Sequence,PBM E-score
1,ACCGGCTG,0.274
2,AAACCTCC,0.0335
3,AGTTCTGC,0.142
4,CGCGTACG,0.228
5,ACTAATAA,-0.0326
6,CGATCTAG,-0.176
7,ACTCCGAT,0.406
8,ATGGGCTC,-0.218
9,AGACCTTG,-0.255
10,CGTGAGTC,-0.164
11,CAACACGC,-0.0088
12,GCTACGGA,0.201
13,CGCCCATC,-0.0657
14,AGACTTCG,-0.0746
15,ACGCCTAA,-0.0995
16,ACCCCCAA,-0.119
17,AAAGCGCG,0.073
18,CTAGACCC,0.0672
19,ATTTCCGA,0.432
20,TGTTTCAA,-0.162
21,GCAATATA,-0.0113
22,AAGTCTGC,-0.259
23,AAACAGCA,0.0297
24,AACAAAGA,-0.163
25,CTGGAGTA,-0.157

row,Sequence,PBM E-score
1,CTGTGCGA,-0.137
2,CAGGCTGG,-0.0521
3,CTAATCCC,0.279
4,AAGCACAC,-0.246
5,ATCCCGGC,0.339
6,CTATCGGA,0.452
7,CATCCCGG,0.312
8,ACCTGTAG,-0.131
9,GTGGCAGA,-0.188
10,ATGTGCCG,0.0929
11,ACAAGAAG,-0.0389
12,ATAAGAGG,0.117
13,GAACATGA,-0.0648
14,CCGCTTAC,-0.157
15,CGAAATTA,0.193
16,TTGCCAAA,-0.113
17,AACCCTGA,-0.00288
18,TACAAACA,-0.0533
19,CATGCCTA,-0.201
20,CCCTCGCC,-0.207
21,AACGCCAG,0.0301
22,ATCGATTG,-0.0851
23,GCAAGGGC,-0.166
24,CCGGCACC,0.341
25,CTTATGCC,0.112

row,Sequence,PBM E-score
1,CACGCGCG,0.0232
2,GCCTTGTA,-0.199
3,CTATCGCA,0.0719
4,ATGTGACA,-0.217
5,CCCAATCA,-0.0401
6,CGTAGGTA,0.00019
7,AAACTCAC,-0.0934
8,ACGACTGC,-0.215
9,GAGCCACA,-0.157
10,ATAGATTG,0.0362
11,CGCCAAAG,0.0304
12,CTGTGCTA,-0.111
13,TCGCGCGA,0.273
14,AGAACTAG,-0.23
15,ATTGATCC,0.305
16,TAACGTTA,0.0838
17,CGAATACC,0.135
18,AGATCCAA,-0.16
19,CAAGTGCG,-0.0281
20,CGCAGAAG,-0.098
21,ATACCGGA,0.437
22,AGGCCGGG,0.25
23,AGATCTCC,0.0876
24,GGGTCGAA,0.0247
25,CGAAACGC,0.0847

row,Sequence,PBM E-score
1,AGTAGCGG,0.216
2,GAATGCCA,-0.0688
3,GGCCTAAA,-0.022
4,ACCAGTGG,-0.135
5,ACAGACAG,-0.0727
6,GACGTCGA,-0.142
7,ACTGTCGA,-0.155
8,ATCCTTTC,-0.124
9,GGCGGGGA,0.284
10,CCGATCTA,0.249
11,ACAGTGGT,-0.156
12,GCAACGCC,0.0684
13,ATATTAAG,-0.0464
14,AAAACTTT,0.105
15,AACGGCCA,0.183
16,CACTGGTC,-0.0058
17,AAATGACC,0.0485
18,CGGTTACC,0.193
19,GCGTCAAA,-0.079
20,ACACGCGT,-0.0669
21,AGTTGCTC,-0.185
22,GCGTAGGA,0.0634
23,CTGAACAC,-0.08
24,AGCCATCC,0.0274
25,AGCTGGGA,-0.113

row,Sequence,PBM E-score
1,CACAGCCA,-0.18
2,AGGCCGTC,0.096
3,CGCCCAGC,0.108
4,GAGTACCC,-0.134
5,CACGACCA,-0.204
6,CTACCTGC,0.105
7,ATCCGAGA,0.346
8,AGGTATAG,-0.0745
9,AGGAGGAT,-0.214
10,CACCGGGC,0.365
11,GGGGGTGA,-0.0178
12,AACCCACT,0.194
13,AAGCCTAC,-0.268
14,CCCGCTTC,0.169
15,GTTAAAAA,0.0229
16,ATCAATTC,-0.00586
17,ACCAGCCT,-0.0444
18,GCTTGTCC,0.123
19,CCAGCGAG,-0.0775
20,CTTGGAAA,-0.221
21,GTTGCGCA,-0.0663
22,GTGTCCGA,0.339
